Laboratory results taken from patent US20260008835A1 (SHANGHAI REGENELEAD THERAPIES, published 2026).

T1: Human VEGF-A protein (human, UniProt P15692-4 27-191, limits assumed)
T1 sequence (looked up): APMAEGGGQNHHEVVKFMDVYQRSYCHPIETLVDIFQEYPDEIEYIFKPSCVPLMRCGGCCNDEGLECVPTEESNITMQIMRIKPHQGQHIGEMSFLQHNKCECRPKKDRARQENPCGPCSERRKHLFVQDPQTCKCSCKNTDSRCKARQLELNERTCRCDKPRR


Biological target: T1, Human VEGF-A protein
Assay: cell-based or functional assay

Binder	VEGF-A IC50; VEGF-A-induced NFAT-RE-luc2P/KDR HEK293 reporter gene expression
PR1119 (R1D2-R2D3-linker-R2D2-R2D3 (L277R)-Fc) (Fc fusion) SDTGRPFVEMYSEIPEIIHMTEGRELVIPCRVTSPNITVTLKKFPLDTLIPDGKRIIWDSRKGFIISNATYKEIGLLTCEATVNGHLYKTNYLTHRQTNTIIDVVLSPSHGIELSVGEKLVLNCTARTELNVGIDFNWEYPSSKHQHKKLVNRDLKTQSGSEMKKFLSTLTIDGVTRSDQGLYTCAASSGLMTKKNSTFVRVHEKGGGGSSPFIASVSDQHGVVYITENKNKTVVIPCLGSISNLNVSLCARYPEKRFVPDGNRISWDSKKGFTIPSYMISYAGMVFCEAKINDESYQSIMYIVVVVGYRIYDVVLSPSHGIELSVGEKLVLNCTARTELNVGIDFNWEYPSSKHQHKKLVNRDRKTQSGSEMKKFLSTLTIDGVTRSDQGLYTCAASSGLMTKKNSTFVRVHEK[human IgG1 Fc with changes not printed]	0.14 nM
PR1122 (R1D2-R2D3-linker-R2D2-R2D3 (K278E)-Fc) (Fc fusion) SDTGRPFVEMYSEIPEIIHMTEGRELVIPCRVTSPNITVTLKKFPLDTLIPDGKRIIWDSRKGFIISNATYKEIGLLTCEATVNGHLYKTNYLTHRQTNTIIDVVLSPSHGIELSVGEKLVLNCTARTELNVGIDFNWEYPSSKHQHKKLVNRDLKTQSGSEMKKFLSTLTIDGVTRSDQGLYTCAASSGLMTKKNSTFVRVHEKGGGGSSPFIASVSDQHGVVYITENKNKTVVIPCLGSISNLNVSLCARYPEKRFVPDGNRISWDSKKGFTIPSYMISYAGMVFCEAKINDESYQSIMYIVVVVGYRIYDVVLSPSHGIELSVGEKLVLNCTARTELNVGIDFNWEYPSSKHQHKKLVNRDLETQSGSEMKKFLSTLTIDGVTRSDQGLYTCAASSGLMTKKNSTFVRVHEK[human IgG1 Fc with changes not printed]	0.36 nM
PR1125 (R1D2-R2D3-linker-R2D2-R2D3 (E284H)-Fc) (Fc fusion) SDTGRPFVEMYSEIPEIIHMTEGRELVIPCRVTSPNITVTLKKFPLDTLIPDGKRIIWDSRKGFIISNATYKEIGLLTCEATVNGHLYKTNYLTHRQTNTIIDVVLSPSHGIELSVGEKLVLNCTARTELNVGIDFNWEYPSSKHQHKKLVNRDLKTQSGSEMKKFLSTLTIDGVTRSDQGLYTCAASSGLMTKKNSTFVRVHEKGGGGSSPFIASVSDQHGVVYITENKNKTVVIPCLGSISNLNVSLCARYPEKRFVPDGNRISWDSKKGFTIPSYMISYAGMVFCEAKINDESYQSIMYIVVVVGYRIYDVVLSPSHGIELSVGEKLVLNCTARTELNVGIDFNWEYPSSKHQHKKLVNRDLKTQSGSHMKKFLSTLTIDGVTRSDQGLYTCAASSGLMTKKNSTFVRVHEK[human IgG1 Fc with changes not printed]	0.23 nM
PR1126 (R1D2-R2D3-linker-R2D2-R2D3 (F288Y)-Fc) (Fc fusion) SDTGRPFVEMYSEIPEIIHMTEGRELVIPCRVTSPNITVTLKKFPLDTLIPDGKRIIWDSRKGFIISNATYKEIGLLTCEATVNGHLYKTNYLTHRQTNTIIDVVLSPSHGIELSVGEKLVLNCTARTELNVGIDFNWEYPSSKHQHKKLVNRDLKTQSGSEMKKFLSTLTIDGVTRSDQGLYTCAASSGLMTKKNSTFVRVHEKGGGGSSPFIASVSDQHGVVYITENKNKTVVIPCLGSISNLNVSLCARYPEKRFVPDGNRISWDSKKGFTIPSYMISYAGMVFCEAKINDESYQSIMYIVVVVGYRIYDVVLSPSHGIELSVGEKLVLNCTARTELNVGIDFNWEYPSSKHQHKKLVNRDLKTQSGSEMKKYLSTLTIDGVTRSDQGLYTCAASSGLMTKKNSTFVRVHEK[human IgG1 Fc with changes not printed]	0.7 nM
PR1124 (R1D2-R2D3-linker-R2D2-R2D3 (S283T)-Fc) (Fc fusion) SDTGRPFVEMYSEIPEIIHMTEGRELVIPCRVTSPNITVTLKKFPLDTLIPDGKRIIWDSRKGFIISNATYKEIGLLTCEATVNGHLYKTNYLTHRQTNTIIDVVLSPSHGIELSVGEKLVLNCTARTELNVGIDFNWEYPSSKHQHKKLVNRDLKTQSGSEMKKFLSTLTIDGVTRSDQGLYTCAASSGLMTKKNSTFVRVHEKGGGGSSPFIASVSDQHGVVYITENKNKTVVIPCLGSISNLNVSLCARYPEKRFVPDGNRISWDSKKGFTIPSYMISYAGMVFCEAKINDESYQSIMYIVVVVGYRIYDVVLSPSHGIELSVGEKLVLNCTARTELNVGIDFNWEYPSSKHQHKKLVNRDLKTQSGTEMKKFLSTLTIDGVTRSDQGLYTCAASSGLMTKKNSTFVRVHEK[human IgG1 Fc with changes not printed]	0.29 nM
PR1127 (R1D2-R2D3-linker-R2D2-R2D3 (L289Y)-Fc) (Fc fusion) SDTGRPFVEMYSEIPEIIHMTEGRELVIPCRVTSPNITVTLKKFPLDTLIPDGKRIIWDSRKGFIISNATYKEIGLLTCEATVNGHLYKTNYLTHRQTNTIIDVVLSPSHGIELSVGEKLVLNCTARTELNVGIDFNWEYPSSKHQHKKLVNRDLKTQSGSEMKKFLSTLTIDGVTRSDQGLYTCAASSGLMTKKNSTFVRVHEKGGGGSSPFIASVSDQHGVVYITENKNKTVVIPCLGSISNLNVSLCARYPEKRFVPDGNRISWDSKKGFTIPSYMISYAGMVFCEAKINDESYQSIMYIVVVVGYRIYDVVLSPSHGIELSVGEKLVLNCTARTELNVGIDFNWEYPSSKHQHKKLVNRDLKTQSGSEMKKFYSTLTIDGVTRSDQGLYTCAASSGLMTKKNSTFVRVHEK[human IgG1 Fc with changes not printed]	0.52 nM
PR1123 (R1D2-R2D3-linker-R2D2-R2D3 (Q280E)-Fc) (Fc fusion) SDTGRPFVEMYSEIPEIIHMTEGRELVIPCRVTSPNITVTLKKFPLDTLIPDGKRIIWDSRKGFIISNATYKEIGLLTCEATVNGHLYKTNYLTHRQTNTIIDVVLSPSHGIELSVGEKLVLNCTARTELNVGIDFNWEYPSSKHQHKKLVNRDLKTQSGSEMKKFLSTLTIDGVTRSDQGLYTCAASSGLMTKKNSTFVRVHEKGGGGSSPFIASVSDQHGVVYITENKNKTVVIPCLGSISNLNVSLCARYPEKRFVPDGNRISWDSKKGFTIPSYMISYAGMVFCEAKINDESYQSIMYIVVVVGYRIYDVVLSPSHGIELSVGEKLVLNCTARTELNVGIDFNWEYPSSKHQHKKLVNRDLKTESGSEMKKFLSTLTIDGVTRSDQGLYTCAASSGLMTKKNSTFVRVHEK[human IgG1 Fc with changes not printed]	0.21 nM
PR1120 (R1D2-R2D3-linker-R2D2-R2D3 (K278D)-Fc) (Fc fusion) SDTGRPFVEMYSEIPEIIHMTEGRELVIPCRVTSPNITVTLKKFPLDTLIPDGKRIIWDSRKGFIISNATYKEIGLLTCEATVNGHLYKTNYLTHRQTNTIIDVVLSPSHGIELSVGEKLVLNCTARTELNVGIDFNWEYPSSKHQHKKLVNRDLKTQSGSEMKKFLSTLTIDGVTRSDQGLYTCAASSGLMTKKNSTFVRVHEKGGGGSSPFIASVSDQHGVVYITENKNKTVVIPCLGSISNLNVSLCARYPEKRFVPDGNRISWDSKKGFTIPSYMISYAGMVFCEAKINDESYQSIMYIVVVVGYRIYDVVLSPSHGIELSVGEKLVLNCTARTELNVGIDFNWEYPSSKHQHKKLVNRDLDTQSGSEMKKFLSTLTIDGVTRSDQGLYTCAASSGLMTKKNSTFVRVHEK[human IgG1 Fc with changes not printed]	0.38 nM

Next, values leading:

VEGF-A IC50; VEGF-A-induced NFAT-RE-luc2P/KDR HEK293 reporter gene expression	Binder
0.42 nM	PR1132 (R1D2-R2D3-linker-R2D2-R2D3 (L277R/L289Y)-Fc) (Fc fusion) SDTGRPFVEMYSEIPEIIHMTEGRELVIPCRVTSPNITVTLKKFPLDTLIPDGKRIIWDSRKGFIISNATYKEIGLLTCEATVNGHLYKTNYLTHRQTNTIIDVVLSPSHGIELSVGEKLVLNCTARTELNVGIDFNWEYPSSKHQHKKLVNRDLKTQSGSEMKKFLSTLTIDGVTRSDQGLYTCAASSGLMTKKNSTFVRVHEKGGGGSSPFIASVSDQHGVVYITENKNKTVVIPCLGSISNLNVSLCARYPEKRFVPDGNRISWDSKKGFTIPSYMISYAGMVFCEAKINDESYQSIMYIVVVVGYRIYDVVLSPSHGIELSVGEKLVLNCTARTELNVGIDFNWEYPSSKHQHKKLVNRDRKTQSGSEMKKFYSTLTIDGVTRSDQGLYTCAASSGLMTKKNSTFVRVHEK[human IgG1 Fc with changes not printed]
0.45 nM	PR1130 (R1D2-R2D3-linker-R2D2-R2D3 (M314Q)-Fc) (Fc fusion) SDTGRPFVEMYSEIPEIIHMTEGRELVIPCRVTSPNITVTLKKFPLDTLIPDGKRIIWDSRKGFIISNATYKEIGLLTCEATVNGHLYKTNYLTHRQTNTIIDVVLSPSHGIELSVGEKLVLNCTARTELNVGIDFNWEYPSSKHQHKKLVNRDLKTQSGSEMKKFLSTLTIDGVTRSDQGLYTCAASSGLMTKKNSTFVRVHEKGGGGSSPFIASVSDQHGVVYITENKNKTVVIPCLGSISNLNVSLCARYPEKRFVPDGNRISWDSKKGFTIPSYMISYAGMVFCEAKINDESYQSIMYIVVVVGYRIYDVVLSPSHGIELSVGEKLVLNCTARTELNVGIDFNWEYPSSKHQHKKLVNRDLKTQSGSEMKKFLSTLTIDGVTRSDQGLYTCAASSGLQTKKNSTFVRVHEK[human IgG1 Fc with changes not printed]
0.42 nM	PR1128 (R1D2-R2D3-linker-R2D2-R2D3 (L313Y)-Fc) (Fc fusion) SDTGRPFVEMYSEIPEIIHMTEGRELVIPCRVTSPNITVTLKKFPLDTLIPDGKRIIWDSRKGFIISNATYKEIGLLTCEATVNGHLYKTNYLTHRQTNTIIDVVLSPSHGIELSVGEKLVLNCTARTELNVGIDFNWEYPSSKHQHKKLVNRDLKTQSGSEMKKFLSTLTIDGVTRSDQGLYTCAASSGLMTKKNSTFVRVHEKGGGGSSPFIASVSDQHGVVYITENKNKTVVIPCLGSISNLNVSLCARYPEKRFVPDGNRISWDSKKGFTIPSYMISYAGMVFCEAKINDESYQSIMYIVVVVGYRIYDVVLSPSHGIELSVGEKLVLNCTARTELNVGIDFNWEYPSSKHQHKKLVNRDLKTQSGSEMKKFLSTLTIDGVTRSDQGLYTCAASSGYMTKKNSTFVRVHEK[human IgG1 Fc with changes not printed]
0.67 nM	PR1129 (R1D2-R2D3-linker-R2D2-R2D3 (M314S)-Fc) (Fc fusion) SDTGRPFVEMYSEIPEIIHMTEGRELVIPCRVTSPNITVTLKKFPLDTLIPDGKRIIWDSRKGFIISNATYKEIGLLTCEATVNGHLYKTNYLTHRQTNTIIDVVLSPSHGIELSVGEKLVLNCTARTELNVGIDFNWEYPSSKHQHKKLVNRDLKTQSGSEMKKFLSTLTIDGVTRSDQGLYTCAASSGLMTKKNSTFVRVHEKGGGGSSPFIASVSDQHGVVYITENKNKTVVIPCLGSISNLNVSLCARYPEKRFVPDGNRISWDSKKGFTIPSYMISYAGMVFCEAKINDESYQSIMYIVVVVGYRIYDVVLSPSHGIELSVGEKLVLNCTARTELNVGIDFNWEYPSSKHQHKKLVNRDLKTQSGSEMKKFLSTLTIDGVTRSDQGLYTCAASSGLSTKKNSTFVRVHEK[human IgG1 Fc with changes not printed]
